Tests used:
[1] = target: T1, human ADK (adenosine kinase), recombinant (UniProt P55263 2-362); assay: MST
[2] = target: T1, human ADK (adenosine kinase), …; assay: MST; remark: listed apart in the source

T1 sequence (P55263 2-362): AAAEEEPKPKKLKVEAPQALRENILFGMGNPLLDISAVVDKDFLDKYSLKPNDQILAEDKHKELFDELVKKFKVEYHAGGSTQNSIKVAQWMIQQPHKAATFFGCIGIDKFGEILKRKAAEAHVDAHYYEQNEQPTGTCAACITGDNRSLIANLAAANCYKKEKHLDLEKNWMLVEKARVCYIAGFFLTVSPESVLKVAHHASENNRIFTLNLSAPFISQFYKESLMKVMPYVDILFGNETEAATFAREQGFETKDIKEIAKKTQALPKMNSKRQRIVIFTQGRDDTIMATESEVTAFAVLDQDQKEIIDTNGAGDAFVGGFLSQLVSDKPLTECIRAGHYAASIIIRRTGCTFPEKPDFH

- EC50 [1]: 2 nM
- Kd [2]: 2 nM
B1: human NDPK-A (nucleoside diphosphate kinase A), full-length recombinant (enzyme)
chain: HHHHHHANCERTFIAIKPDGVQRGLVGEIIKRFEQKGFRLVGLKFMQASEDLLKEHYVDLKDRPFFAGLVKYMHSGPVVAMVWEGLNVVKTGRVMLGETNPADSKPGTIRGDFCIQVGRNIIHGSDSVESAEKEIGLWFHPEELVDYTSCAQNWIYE
